In PubChem BioAssay AID1030 (National Center for Advancing Translational Sciences (NCATS), 2008):
About 16,000 (7.3%) of roughly 220,000 compounds were called active. Inconclusive means that the source gave no clear call. Such entries were picked first, then a sample of the others. Calls follow the shape of the dose curve; as a rule, active = well fitted inhibition curve with a large enough effect (not every such curve was filed as active); inconclusive = small, poorly fitted or top-dose-only effect, or another doubt; inactive = no such curve, though single readings can be large or run the other way. Where the call is inconclusive, the potency comes from a doubtful curve fit. Peptide text beside a SMILES is read from it. * marks the point of attachment. Cbz = O=C(OCc1ccccc1)*

biological target: Aldehyde dehydrogenase 1A1 (Homo sapiens) (UniProt P00352); experiment: qHTS Assay for Inhibitors of Aldehyde Dehydrogenase 1 (ALDH1A1); conditions: Purified ALDH1A1, NADH fluorescence, propionaldehyde substrate; series mostly up to 75.3 µM; activity, negative = inhibition: at the top concentration;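 as to activity, negative = inhibition: plate controls were no enzyme wells and a reference inhibitor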
Potency is read from the fitted curve at half-maximal effect; tags tell the direction and shape of the fitted curve.

Chain of UniProt P00352 (P00352 whole entry, looked up): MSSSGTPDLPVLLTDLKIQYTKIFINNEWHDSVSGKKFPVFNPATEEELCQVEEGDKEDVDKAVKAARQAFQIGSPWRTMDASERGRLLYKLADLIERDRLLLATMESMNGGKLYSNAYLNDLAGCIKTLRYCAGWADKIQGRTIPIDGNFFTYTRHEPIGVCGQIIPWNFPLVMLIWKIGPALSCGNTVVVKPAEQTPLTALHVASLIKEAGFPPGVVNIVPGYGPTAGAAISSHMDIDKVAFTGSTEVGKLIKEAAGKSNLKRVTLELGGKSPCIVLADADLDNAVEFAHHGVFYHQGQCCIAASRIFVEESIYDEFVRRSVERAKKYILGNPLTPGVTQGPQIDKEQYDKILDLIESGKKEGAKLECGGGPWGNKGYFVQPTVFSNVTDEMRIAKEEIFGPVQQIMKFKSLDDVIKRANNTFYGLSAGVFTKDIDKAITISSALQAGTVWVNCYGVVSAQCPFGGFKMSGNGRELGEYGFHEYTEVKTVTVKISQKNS

activity, negative = inhibition, inactive:
CCOC(=O)c1ccc(NC(=O)CSC(=S)N2CCOCC2)cc1 -0.566%
Cn1ccs/c1=N\C(=O)Nc1cccc(Cl)c1 6.82%
N#C/C(=C\C=C\c1ccccc1)c1nc(-c2ccc3c(c2)OCO3)cs1 1.68%
Cc1ccc(N=Cc2sccc2C)cc1C -0.184%
Cc1nc(-c2ccc(NS(=O)(=O)c3ccccc3)cc2)cs1 5.53%
COc1ccccc1N1CCN(C(=O)CCCn2c(=O)[nH]c3ccsc3c2=O)CC1 -2.58%
O=C(NCc1cccnc1)c1ccc2c(=O)n(CCCN3CCCC3=O)c(=S)[nH]c2c1 5.54%
Cc1cnn(-c2nc(-c3ccccc3)cc(-c3ccccc3)n2)c1 1.91%
COc1ccccc1N1CCN(Cc2ccco2)CC1 -8.61%
Cc1cccc(N2CCN(C(=O)c3ccc(CNc4c(N5CCC(C)CC5)c(=O)c4=O)cc3)CC2)c1C -5.22%
Cc1cc(C)cc(N(CC(=O)NCc2cccnc2)S(C)(=O)=O)c1 8.55%
Cc1c(-c2ccccc2)[n+](=O)c2c(n1[O-])CCCCC2 2.51%
N#Cc1c(-c2ccco2)nc(NCC2CCCO2)[nH]c1=O (configuration not stated) -4.77%
N#CC(C#N)=C1C=CC=CN1/C(=C\c1ccco1)C(=O)c1ccc(Cl)cc1 -7.43%
COc1ccccc1Cn1nnc2c(=O)[nH]c(C3CCN(C(=O)c4ccc(C)cc4)CC3)nc21 0.968%
CCC(CC)C(=O)c1c[nH]c(C(=O)N2CCN(c3ccccc3F)CC2)c1 5.57%
CC1(C)CC(=O)c2sc(NS(=O)(=O)Cc3ccccc3)nc2C1 13.1%
Cc1ccccc1Nc1nnc(SCC(=O)Nc2ccccc2[N+](=O)[O-])s1 13.6%
CC(=O)Nc1ccc(OCC(O)CN2CCN(c3cccc(Cl)c3)CC2)cc1 (configuration not stated) 6.87%
Oc1c(CN2CCOCC2)cc(-c2ccccc2)cc1CN1CCOCC1 3.45%
N#CCCNC(=O)CCN1CCOCC1 10.2%
COc1ccc(OC)c(NC(=O)c2cc3n(n2)C(C(F)(F)F)CC(c2ccc4c(c2)OCO4)N3)c1 (configuration not stated) 7.84%

Potency, inconclusive:
COc1ccc2oc(=O)c(C(=O)n3ccc(C)n3)cc2c1 25.1 µM [inhibitor, partial curve]
COc1ccc(N2CCN(C(=S)Nc3ccc(S(N)(=O)=O)cc3)CC2)cc1 39.8 µM [inhibitor, single point]
Cc1nn(C)c(-c2n[nH]c(=S)n2-c2ccccc2)c1Cl 39.8 µM [inhibitor, single point]
Cn1c(SCC(=O)N2CCc3ccccc32)nnc1-c1ccc(S(=O)(=O)N2CCCC2)cc1 25.1 µM [inhibitor, partial curve]
O=C(Nc1ccc(Cl)cc1)Nc1ccccc1CC[N+](=O)[O-] 8.91 µM [inhibitor, partial curve]
CCCC1CC(C)(c2csc(Nc3ccc(OCC)cc3)n2)OC1=O (configuration not stated) 39.8 µM [inhibitor, single point]
CCN(CC)CCN(C(=O)c1ccc(N2C(=O)CCC2=O)cc1)c1nc2cc3c(cc2s1)OCCO3 35.5 µM [inhibitor, single point]
CN(CC(=O)N1CCCCC1)S(=O)(=O)c1cccc2cccnc12 22.4 µM [inhibitor, single point]
COCC(=O)Nc1ccc(-c2cn3cccnc3n2)cc1 0.891 µM [inhibitor, full curve]
CCOC(=O)CCSc1nc(C(C)(C)C)cc(C(F)(F)F)c1C#N 17.8 µM [inhibitor, partial curve]
Cc1cc(NC(=O)Nc2ccc(C)c(C)c2)no1 25.1 µM [inhibitor, partial curve, poor fit]
COc1ccc(/C=C/C(=O)c2ccccn2)cc1 17.8 µM [inhibitor, partial curve]
Nc1cc(C(F)(F)F)ccc1C(=O)O 0.891 µM [inhibitor, partial curve, poor fit]
CCn1c(=O)cc(OCC(=O)NCCCN2CCN(c3cccc(Cl)c3)CC2)c2ccccc21 25.1 µM [inhibitor, single point]
COCc1cc(C)nc(OCC(=O)N/N=C\c2cc(C)n(-c3cccc(C(F)(F)F)c3)c2C)c1C#N 39.8 µM [inhibitor, single point]
O=S(=O)(NCC1CCCO1)c1ccc(-c2ccc(Cl)cc2)cc1 (configuration not stated) 0.355 µM [inhibitor, partial curve, poor fit]
CN1CCN(CCCNC(=O)c2cc3c(-c4ccc(Cl)cc4)nn(C)c3s2)CC1 31.6 µM [inhibitor, single point]
CCN(CC)CC(=O)Nc1ccc(-c2ccc(NC(=O)CN(CC)CC)c(OC)c2)cc1OC 39.8 µM [inhibitor, single point]
CC(OC(=O)c1ccccc1O)C(=O)Nc1cccc(Cl)c1 (configuration not stated) 39.8 µM [inhibitor, single point]
CN(C)c1oc(-c2ccc(OCc3ccc(Cl)cc3)cc2)nc1C#N 15.8 µM [inhibitor, partial curve]
Cc1ccc(S(=O)(=O)NCC(=O)NCC(=O)OCc2c(F)cccc2Cl)cc1 10 µM [inhibitor, partial curve]
Cc1cccc(CC2S/C(=N/N=C/c3ccco3)N(c3ccccc3)C2=O)c1 (configuration not stated) 28.2 µM [inhibitor, single point]
CC1CCC2C(C1)Nc1c(C(=O)O)cccc1C2(C)C (configuration not stated) 31.6 µM [inhibitor, partial curve]
CC1CN(C(=O)c2ccc(CNS(=O)(=O)c3cccc(C(F)(F)F)c3)cc2)CC(C)O1 (configuration not stated) 39.8 µM [inhibitor, single point]
CCOc1ccc(C2C=C(c3ccc(F)cc3)Nc3ncnn32)cc1 (configuration not stated) 28.2 µM [inhibitor, partial curve]
CC(C)(C)C1CCc2onc(C(=O)Nc3cccc(O)c3)c2C1 (configuration not stated) 25.1 µM [inhibitor, single point]
CCCN1CCN(CCCNC(=O)c2cc3c(=O)[nH]c4ccccc4c3s2)CC1 28.2 µM [inhibitor, partial curve]
CCOc1ccccc1Nc1nc(-c2sc(NC(=O)c3ccccc3)nc2C)cs1 39.8 µM [inhibitor, single point]
Cc1ccc(-c2cn3cccnc3n2)cc1NC(=O)c1c(-c2ccccc2Cl)noc1C 31.6 µM [inhibitor, partial curve]
COc1cc(/C=C/C(=O)NC(C)(C)C)ccc1OCc1ccccc1 39.8 µM [inhibitor, single point]
COc1ccc2cc(C(c3nnnn3C3CCCC3)N3CCCCCC3)c3nnnn3c2c1 (configuration not stated) 0.562 µM [inhibitor, full curve, poor fit]
COc1ccc(-c2nc(-c3ccccc3)c(-c3cccs3)[nH]2)cc1OC 25.1 µM [inhibitor, partial curve]
N#CCCN1CCN(C(=S)c2ccc(-c3ccc(Cl)c(Cl)c3)o2)CC1 39.8 µM [inhibitor, single point]
N#Cc1nc(-c2cccs2)oc1N1CCN(Cc2ccccc2)CC1 28.2 µM [inhibitor, partial curve]
CC(=O)OC1CCC2(C)C(COc3ccc4ccc(=O)oc4c3)C(C)(O)CCC2C1(C)C (configuration not stated) 31.6 µM [inhibitor, partial curve]
CC12CCC(C(=O)Nc3ccccc3Cl)(C(Br)C1=O)C2(C)C (configuration not stated) 35.5 µM [inhibitor, partial curve]
Cc1ccc(Oc2ccc(S(=O)(=O)N3CCOCC3)cc2C(N)=O)c(-n2nc3ccccc3n2)c1 28.2 µM [inhibitor, single point]
CCCCc1cc(=O)oc2cc(O)cc(O)c12 28.2 µM [inhibitor, partial curve]
COc1ccc(-c2c(C#N)c(N)nc3sc(C(=O)c4ccc(C)cc4)c(N)c23)cc1 20 µM [inhibitor, partial curve]
CCOc1ccc(-c2cc(C(=O)NCCCn3ccnc3)c3ccccc3n2)cc1 35.5 µM [inhibitor, single point]

Potency, active:
CCc1c(O)nc(SCC(=O)Nc2ccc(C)cc2)n(C2CCCCC2)c1=O 20 µM
O=C(COC(=O)CCN1C(=O)c2ccccc2C1=O)Nc1ccc(S(=O)(=O)N2CCCC2)cc1 5.01 µM
NNC(=O)c1sccc1OCc1ccc(Cl)cc1 2.24 µM
Cc1cc2nc3c(=O)n(Cc4ccccc4)c(=O)[nH]c3nc2cc1N 12.6 µM
CC(C)C[C@@H](C=O)NC(=O)[C@H](CC(C)C)NC(=O)[C@H](CC(C)C)NC(=O)OCc1ccccc1 (Cbz-Leu-Leu-Leu-aldehyde) 14.1 µM
O=C1CC(c2ccccc2)CC(=O)C1CS(=O)(=O)c1ccccc1 (configuration not stated) 11.2 µM
Cc1ccccc1Nc1nc(CSc2nnnn2-c2ccccc2)cs1 7.94 µM
CC1=NN(C(N)=S)C(=O)C1N=Nc1ccc(C)cc1C (configuration not stated) 10 µM
COc1ccc(C(=O)NC(=S)Nc2cccnc2)cc1[N+](=O)[O-] 22.4 µM
c1ccc(C(c2ccccc2)N2CCN(Cc3nnnn3C3CCCCC3)CC2)cc1 7.94 µM
